Results published in PubChem BioAssay (Tox21).
“And” between values parts separate entries of the source, which are not always exact repeats. Equal entries are not always repeated. Inconclusive results, whose numbers are uncertain, are shown with a selection of clear calls. Where the call is inconclusive, the potency comes from a doubtful curve fit. Some compounds were tested as several samples or in several runs, with calls that do not always agree. The source made the active and inactive calls. Unless noted, calls come from the whole dose curve; as a rule, active = well fitted curve in the direction sought with a large enough effect in the repeat runs; inconclusive = weak or mixed curves; inactive = no such curve, though single readings can be large; an effect the other way counts as inactive or inconclusive.

tested on: not listed separately; assay: qHTS assay for identifying genotoxic compounds that show differential cytotoxicity against isogenic chicken DT40 cell lines with known DNA damage response pathways - Rev3 mutant cell line (AID 743014); details: chicken DT40 Rev3-/- viability, CellTiter-Glo, 40 h; activity, negative = cytotoxicity: at 68.4 µM (top of the series); note: nearly all actives have a fitted effect of over 55% in size
% is set by controls: 0 for no effect and ±100 for the full control effect; potency is the fitted concentration of half-maximal effect; tags give direction and shape of the fitted curve.

**Q.** Which Potency does the source give for S=C1NC=NC2N=CNC12 (configuration not stated) here?
**A.** active: 48.6 µM

**Q.** With C=C[Si](OC(=C)C)(OC(=C)C)OC(=C)C as the compound, how does the “activity, negative = cytotoxicity” value read?
**A.** inactive: -1.26%

**Q.** For Cc1c(N)cccc1N, which Potency is on record?
**A.** inconclusive: 55.7 µM [cytotoxic, partial curve]

**Q.** With O=C1NC(=O)c2cccc3cccc1c23 as the compound, how does the “activity, negative = cytotoxicity” value read?
**A.** inactive: -11.6%

**Q.** For CCCCC1=NC2(CCCC2)C(=O)N1Cc1ccc(-c2ccccc2-c2nn[nH]n2)cc1, which Potency is on record?
**A.** inconclusive: 26.6 µM [rising, partial curve, poor fit]

tested on: not listed separately; assay: qHTS assay for identifying genotoxic compounds that show differential cytotoxicity against isogenic chicken DT40 cell lines with known DNA damage response pathways - Rad54/Ku70 mutant cell line (AID 743015); details: DT40 Rad54/Ku70 mutant viability, CellTiter-Glo, 40 h; activity change, negative = cytotoxicity: at 66.8 µM (top of the series); note: nearly all actives have a fitted effect of over 60% in size

**Q.** Which Potency does the source give for Brc1cc(Br)c(Oc2cc(Br)c(Br)cc2Br)cc1Br here?
**A.** inconclusive: 33.5 µM [cytotoxic, single point]

**Q.** Which Potency does the source give for C/C=C/C=C/C(=O)O here?
**A.** active: 61.1 µM

**Q.** With Oc1cccc(-c2c3nc(c(-c4cccc(O)c4)c4ccc([nH]4)c(-c4cccc(O)c4)c4nc(c(-c5cccc(O)c5)c5ccc2[nH]5)CC4)C=C3)c1 as the compound, how does the Potency read?
**A.** active: 26.6 µM

**Q.** Which “activity change, negative = cytotoxicity” value does the source give for COc1cc(OC)cc(OC)c1 here?
**A.** inactive: 7.4%

**Q.** Which Potency does the source give for CN(C)CCC=C1c2ccccc2C=Cc2ccccc21 here?
**A.** active: 10.6 µM

**Q.** With CNS(=O)(=O)c1cc(C(=O)N2CCC(CCN3C4CCC3CC(n3c(C)nc5ccccc53)C4)(c3cccc(F)c3)CC2)c(Cl)cc1F (configuration not stated) as the compound, how does the Potency read?
**A.** active: 6.11 µM

**Q.** For O=C(Nc1ccc2c(O)c(N=Nc3ccc(N=Nc4ccc(S(=O)(=O)O)cc4)cc3)c(S(=O)(=O)O)cc2c1)c1ccccc1, which Potency is on record?
**A.** inconclusive: 61.1 µM [cytotoxic, partial curve, poor fit]

**Q.** Which Potency does the source give for COC(=O)c1ccc(O)cc1 here?
**A.** inconclusive: 68.6 µM [cytotoxic, single point]

**Q.** With CC1CC(OC(=O)C(O)c2ccccc2)CC(C)(C)N1C (configuration not stated) as the compound, how does the Potency read?
**A.** inconclusive: 29.8 µM [rising, partial curve, poor fit]

**Q.** For CC(C)(C)C1=CC(=O)C=C(C(C)(C)C)C1=O, which Potency is on record?
**A.** inconclusive: 19.3 µM [cytotoxic, partial curve, poor fit]

**Q.** For COc1ccc(C(=O)c2ccccc2)c(O)c1, which Potency is on record?
**A.** inconclusive: 33.5 µM [cytotoxic, single point] and inconclusive: 67.5 µM [cytotoxic, single point] and inconclusive: 48.6 µM [cytotoxic, partial curve]

**Q.** With C=CCc1ccccc1OCC(O)CNC(C)C (configuration not stated) as the compound, how does the Potency read?
**A.** inconclusive: 21.1 µM [cytotoxic, partial curve]

**Q.** With COc1cc(C(=O)NS(=O)(=O)c2ccccc2C)ccc1Cc1cn(C)c2ccc(NC(=O)OC3CCCC3)cc12 as the compound, how does the Potency read?
**A.** inconclusive: 33.5 µM [cytotoxic, single point]

**Q.** Which “activity change, negative = cytotoxicity” value does the source give for CC(=O)Oc1ccc(C(=C2CCCCC2)c2ccc(OC(C)=O)cc2)cc1 here?
**A.** inactive: 10.6%

**Q.** With OCCN1CCNCC1 as the compound, how does the Potency read?
**A.** inconclusive: 62.2 µM [cytotoxic, single point]

**Q.** With CN(C)c1nc(N(C)C)nc(N(C)C)n1 as the compound, how does the Potency read?
**A.** inconclusive: 10.1 µM [cytotoxic, partial curve]

**Q.** Which Potency does the source give for C/C=C(/C(=C/C)c1ccc(O)cc1)c1ccc(O)cc1 here?
**A.** inconclusive: 14.3 µM [cytotoxic, single point]

**Q.** With CC(=O)O[C@]1(C(C)=O)CC[C@H]2[C@@H]3C=C(Cl)C4=CC(=O)CC[C@]4(C)[C@H]3CC[C@@]21C as the compound, how does the Potency read?
**A.** active: 18.8 µM and inconclusive: 27.3 µM [cytotoxic, single point]

**Q.** With Nc1ccn([C@H]2CS[C@@H](CO)O2)c(=O)n1 as the compound, how does the Potency read?
**A.** inconclusive: 30.6 µM [cytotoxic, full curve]

**Q.** With S=C1NC=NC2N=CNC12 (configuration not stated) as the compound, how does the Potency read?
**A.** inconclusive: 68.6 µM [cytotoxic, single point]

**Q.** With Cc1c(N)cccc1N as the compound, how does the Potency read?
**A.** active: 14 µM

tested on: not listed separately; assay: qHTS assay to identify small molecule antagonists of the androgen receptor (AR) signaling pathway - cell viability counter screen (AID 743033; note: nearly all actives have a fitted effect of over 45% in size); details: AR-bla HEK293 viability, CellTiter-Glo luminescence, 16 h; activity change, negative = cytotoxicity: at 58.5 µM (top of the series)

**Q.** Which Potency does the source give for Brc1cc(Br)c(Oc2cc(Br)c(Br)cc2Br)cc1Br here?
**A.** inconclusive: 26.9 µM [cytotoxic, single point]

**Q.** With Oc1cccc(-c2c3nc(c(-c4cccc(O)c4)c4ccc([nH]4)c(-c4cccc(O)c4)c4nc(c(-c5cccc(O)c5)c5ccc2[nH]5)CC4)C=C3)c1 as the compound, how does the Potency read?
**A.** active: 23.9 µM

**Q.** Which Potency does the source give for CN(C)CCC=C1c2ccccc2C=Cc2ccccc21 here?
**A.** inconclusive: 23.9 µM [cytotoxic, single point]

**Q.** Which Potency does the source give for CN(C)c1nc(N(C)C)nc(N(C)C)n1 here?
**A.** inactive

**Q.** For C/C=C(/C(=C/C)c1ccc(O)cc1)c1ccc(O)cc1, which Potency is on record?
**A.** inconclusive: 0.0011 µM [cytotoxic]

**Q.** With CC(=O)O[C@]1(C(C)=O)CC[C@H]2[C@@H]3C=C(Cl)C4=CC(=O)CC[C@]4(C)[C@H]3CC[C@@]21C as the compound, how does the Potency read?
**A.** inconclusive: 21.8 µM [cytotoxic]

**Q.** For S=C1NC=NC2N=CNC12 (configuration not stated), which Potency is on record?
**A.** inconclusive: 3.09 µM [cytotoxic, full curve]

target: Androgen receptor (Homo sapiens) (UniProt P10275); assay: qHTS assay to identify small molecule antagonists of the androgen receptor (AR) signaling pathway (AID 743035; active = well fitted inhibition curve with a large enough effect in the signal ratio in the repeat runs, not every such curve was filed as active; inconclusive = weak or mixed curves, or effect the other way; inactive = no such curve, though single readings can be large or run the other way; the % refers to the signal ratio); details: HEK293 AR-UAS-bla, R1881-stimulated, beta-lactamase FRET, 16 h; activity change, negative = inhibition: at 58.5 µM (top of the series) unless noted
In short: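 Antagonist mode: AR-bla HEK293 cells co-treated with test compounds and agonist R1881 for 16 h at 37C, 5% CO2. Beta-lactamase activity read as FRET fluorescence after 2 h room-temperature substrate loading.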

Sequence of UniProt P10275 (P10275 whole entry, looked up): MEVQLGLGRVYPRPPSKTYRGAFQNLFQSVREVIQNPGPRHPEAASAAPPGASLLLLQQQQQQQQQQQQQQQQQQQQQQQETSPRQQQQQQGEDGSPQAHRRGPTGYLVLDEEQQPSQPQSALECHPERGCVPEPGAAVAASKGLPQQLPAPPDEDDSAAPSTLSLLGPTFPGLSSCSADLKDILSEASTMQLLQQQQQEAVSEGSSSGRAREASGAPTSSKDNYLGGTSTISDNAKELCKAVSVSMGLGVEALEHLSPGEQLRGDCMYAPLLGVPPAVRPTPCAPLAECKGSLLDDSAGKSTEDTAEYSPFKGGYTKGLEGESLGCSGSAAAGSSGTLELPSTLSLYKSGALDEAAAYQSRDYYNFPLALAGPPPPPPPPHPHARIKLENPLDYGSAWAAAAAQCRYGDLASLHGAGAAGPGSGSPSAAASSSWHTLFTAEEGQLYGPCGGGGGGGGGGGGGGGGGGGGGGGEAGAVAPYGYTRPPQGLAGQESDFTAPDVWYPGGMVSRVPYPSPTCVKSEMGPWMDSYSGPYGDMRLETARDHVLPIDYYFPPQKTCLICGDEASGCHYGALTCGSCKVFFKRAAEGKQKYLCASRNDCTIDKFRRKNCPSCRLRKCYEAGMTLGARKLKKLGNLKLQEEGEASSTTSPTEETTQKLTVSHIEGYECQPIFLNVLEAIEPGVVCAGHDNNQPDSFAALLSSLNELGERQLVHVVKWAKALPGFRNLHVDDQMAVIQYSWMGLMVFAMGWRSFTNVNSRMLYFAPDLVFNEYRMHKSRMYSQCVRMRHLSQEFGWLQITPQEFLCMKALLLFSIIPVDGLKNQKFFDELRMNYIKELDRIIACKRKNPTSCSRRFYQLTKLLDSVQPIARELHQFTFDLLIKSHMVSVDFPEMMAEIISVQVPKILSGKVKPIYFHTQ

**Q.** For COc1cc(OC)cc(OC)c1, which “activity change, negative = inhibition” value is on record?
**A.** inactive: 1.72%

**Q.** With CNS(=O)(=O)c1cc(C(=O)N2CCC(CCN3C4CCC3CC(n3c(C)nc5ccccc53)C4)(c3cccc(F)c3)CC2)c(Cl)cc1F (configuration not stated) as the compound, how does the Potency read?
**A.** inconclusive: 2.75 µM [rising, full curve]

**Q.** With COc1ccc(C(=O)c2ccccc2)c(O)c1 as the compound, how does the activity change, negative = inhibition read?
**A.** inconclusive: -16.8% and inconclusive: -31.6%

**Q.** For C=CCc1ccccc1OCC(O)CNC(C)C (configuration not stated), which “activity change, negative = inhibition” value is on record?
**A.** inactive: 2.55%
